From PubChem BioAssay AID686979 (National Center for Advancing Translational Sciences (NCATS), 2013)
The campaign covered roughly 420,000 compounds. About 50,000 (12%) were called active. Inconclusive results, whose numbers are uncertain, are shown with a selection of clear calls. The call rests on the fitted dose curve; in most records, active means well fitted inhibition curve with a large enough effect; inconclusive means small, poorly fitted or top-dose-only effect; inactive means flat fitted curve, though single readings scatter. No potency is given beside an inconclusive call; the fits are too rough.

Assay: qHTS for Inhibitors of human tyrosyl-DNA phosphodiesterase 1 (TDP1): qHTS in cells in presence of CPT; further: nearly all actives have a fitted effect of over 55% in size
Conditions: chicken DT40 Tdp1-/-;hTDP1 cells + 20 nM CPT, ATP luminescence, 48 h; activity change, negative = growth inhibition: at 46.2 µM (top of the series) unless noted
How it was run: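 Cell growth measured by CellTiter-Glo luminescence after a minimum 48 h, 37 C compound exposure with 20 nM CPT in Tdp1-knockout DT40 cells stably expressing hTDP1, seeded 400/well; qHTS titration format.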
On the % scale 0 is the no-effect control and ±100 the full control effect; potency means the concentration at half of the fitted maximal effect; tags describe the fitted curve by direction and shape.

Row | Compound | Potency | activity change, negative = growth inhibition
1 | CCOc1cc(/C=C\[N+](=O)[O-])ccc1OCC(=O)Nc1ccccc1C | active: 0.92 µM | –
2 | COc1ccccc1CCC(=O)N(C)C1CCCN(Cc2ccccc2F)C1 (configuration not stated) | inconclusive [inhibitor, single point] | –
3 | CCc1cccc(C)c1NC(=O)Cn1nc(C)c2nn(-c3ccc(Cl)cc3)c(C)c2c1=O | active: 16.4 µM | –
4 | O=C(c1ccco1)N1CCN(C(=O)c2cc(-c3ccccc3F)no2)CC1 | inactive | –
5 | O=S1(=O)CC(N2CCC(c3ccccc3)CC2)CN1Cc1ccc(F)cc1 (configuration not stated) | inconclusive [inhibitor, single point] | –
6 | COCCNc1nc(NCc2cccc(Cl)c2)c2cnn(C)c2n1 | inconclusive [inhibitor, single point] | –
7 | COc1ccc(-c2nc(C#N)c(N3CCCCCC3)o2)cc1OC | active: 14.6 µM | –
8 | Nc1ccc(Cl)cc1C(=O)OCC(=O)NC1CCS(=O)(=O)C1 (configuration not stated) | inactive | –
9 | CCCN1Cc2cccc(C(=O)Nc3cccc(C(=O)OCC)c3)c2C1=O | – | inconclusive: -35.4% [inhibitor]
10 | Cc1ccc(C(=O)N/C(=C/c2ccco2)C(=O)Nc2cccc(C(=O)O)c2)cc1 | inactive | –
11 | O=C(Nc1ncc2c(n1)-c1ccccc1CC2)c1cccs1 | inconclusive [inhibitor, partial curve, poor fit] | –
12 | COc1ccc(Cc2nnc(NC(=O)c3cccc(F)c3)s2)cc1OC | inactive | –
13 | O=C1CCC(C(=O)N2CCCC(C(=O)c3ccc4ccccc4c3)C2)=NN1 (configuration not stated) | inconclusive [inhibitor, single point] | –
14 | O=C(CSc1nc2ccccc2n1Cc1ccccc1)N/N=C/c1ccco1 | inconclusive [inhibitor, single point] | –
15 | Cc1ccnc(NC(=O)CCC(=O)N(CC(=O)NC2CCCCC2)c2cccc(C)c2C)c1 | inconclusive [inhibitor, single point] | –
16 | CCn1nc(NC(=O)C(C)(C)C)c2cc3cccc(C)c3nc21 | inconclusive [inhibitor, single point] | –
17 | COc1ccccc1C(=O)Nc1ccc2oc(-c3cccc4c(Br)cccc34)nc2c1 | inconclusive [inhibitor, single point] | –
18 | Nc1nc2ccc(-c3nc4ccccc4o3)cc2s1 | inactive | –
19 | COC(=O)N1CCCCC1c1cc(C(=O)Nc2ccc(OC)cc2C)no1 (configuration not stated) | inactive | –
20 | CSc1cccc(NC(=O)c2cnn3ccccc23)c1 | inconclusive [inhibitor, single point] | –
21 | O=c1nc2c(O)cccn2c2c1c(=O)[nH]c1ccccc12 | inconclusive [inhibitor, single point] | –
22 | NC(=O)CC(NC(=O)Cc1cccc2ccccc12)c1ccc(NCCOc2ccccc2)c([N+](=O)[O-])c1 (configuration not stated) | inconclusive [inhibitor, single point] | –
23 | CC1(Cc2ccccc2Cl)C(=O)Nc2c(Cl)ccc(Cl)c21 (configuration not stated) | inconclusive [inhibitor, single point] | –
24 | CCN(c1ccccc1)S(=O)(=O)c1c(-c2ccc(C)cc2)csc1C(=O)OC | active: 18.4 µM | –

Row | Compound | Potency | activity change, negative = growth inhibition
25 | O=C(CCCc1nc(-c2ccc(Cl)cc2)no1)Nc1cccnc1 | active: 16.4 µM | –
26 | N#C/C(=C\Nc1ccc2c(c1)OCCO2)c1nc2ccccc2[nH]1 | inconclusive [inhibitor, single point] | –
27 | O=C(Cc1csc2nc(-c3ccc(F)cc3)cn12)NCc1ccccc1 | active: 16.4 µM | –
28 | N#Cc1ccccc1OCC(=O)Nc1nnc(C2CC2)s1 | inactive | –
29 | Cc1ccc2oc3c(c(=O)c2c1)C(c1cccc(Br)c1)N(Cc1ccco1)C3=O (configuration not stated) | inconclusive [inhibitor, single point] | –
30 | CCCN(C)C[C@@H]1OCCCC[C@@H](C)Oc2ccc(NS(=O)(=O)c3ccc(OC)cc3)cc2C(=O)N([C@H](C)CO)C[C@@H]1C | inconclusive [inhibitor, single point] | –
31 | Cc1c(O)c(CN(C)C)cc2c1oc(=O)c1ccccc12 | inactive | –
32 | Cc1cc(-c2nnc(CSc3nnc(NC(=O)c4ccc(C(C)(C)C)cc4)s3)o2)ccc1[N+](=O)[O-] | inconclusive [inhibitor, single point] | –
33 | O=C(NC1CCCCCC1)c1cc(S(=O)(=O)N2CCOCC2)ccc1N1CCCCC1 | inconclusive [inhibitor, single point] | –
34 | O=C(NCCCNC(=O)c1cc(Cl)ccc1Cl)c1cnccn1 | inactive | –
35 | CC1(C(=O)NCc2ccc(F)c(F)c2)Cc2c(-c3ccc4c(c3)OCO4)ccnc2O1 (configuration not stated) | active: 4.11 µM | –
36 | COc1ccc(C2c3cc(OC)c(OC)cc3CC(=O)N2c2ccc(C)c(F)c2)cc1 (configuration not stated) | active: 3.26 µM | –
37 | C[C@H](NC(=O)c1nc[nH]c1C(=O)NCC(=O)OC(C)(C)C)C(=O)OC(C)(C)C | inconclusive [inhibitor, single point] | –
38 | CC1CCN(C(=O)COC(=O)c2ccccc2C(=O)c2ccccc2)CC1 | inconclusive [inhibitor, single point] | –
39 | COc1ccc(Br)cc1-c1nc(CCl)cs1 | active: 13 µM | –
40 | COc1cccc(Cn2c(=O)c(-c3ccccc3)nc3cnc(N4CCN(C)CC4)nc32)c1 | inconclusive [inhibitor, single point] | –
41 | CC1(C)CCc2cc(-c3ccn(S(=O)(=O)c4ccccc4Cl)n3)ccc2O1 | inconclusive [inhibitor, single point] | –
42 | CCOC(=O)C(=Cc1ccc(-c2ccsc2C(=O)OC)o1)C(=O)OCC | active: 25.9 µM | –
43 | COc1ccc(OC)c(Cc2nnc(CCC(=O)NCc3nc4ccccc4s3)o2)c1 | inactive | –
44 | Cc1cc(S(=O)(=O)N2CCCC(N3CCOCC3)C2)c(C)cc1Cl (configuration not stated) | inconclusive [inhibitor, single point] | –
45 | COC(=O)CSc1nnc(NC(=O)C2CC(=O)N(c3ccc(F)cc3)C2)s1 (configuration not stated) | inactive | –
46 | Cc1ccc(-c2nnc(Nc3ccc(C(=O)N(C)C)cc3)c3ccccc23)cc1S(=O)(=O)N(C)C | active: 23.1 µM | –
47 | Cc1ccc(C(=O)c2oc3ccccc3c2NC(=O)c2cc(-c3ccccc3O)n[nH]2)cc1 | active: 25.9 µM | –
48 | COc1ccc(NC(=O)c2ccc([N+](=O)[O-])o2)cc1 | active: 16.4 µM | –

Row | Compound | Potency | activity change, negative = growth inhibition
49 | Cc1ccc(-c2cc(C(=O)N/N=C/C=C/c3ccco3)c3ccccc3n2)cc1C | active: 8.2 µM | –
50 | CCOc1ccc(CN(C)C(=O)CCl)cc1 | active: 2.91 µM | –
51 | C#Cc1ccc(CN2CCC(C(=O)Nc3ccc(Oc4ccccc4)nc3)CC2)cc1 | active: 14.6 µM | –
52 | C/C(=N\NC(=O)c1ccc([N+](=O)[O-])cc1Cl)c1ccccc1 | inconclusive [inhibitor, single point] | –
53 | O=C(Nc1nnc(S(=O)(=O)N2CCCCC2)s1)c1ccccc1Br | inconclusive [inhibitor, partial curve] | –
54 | CCOC(=O)c1[nH]c(C)c(C(=O)NCc2ccc(Cl)cc2)c1C | inconclusive [inhibitor, single point] | –
55 | Cc1ccc(C(=O)C2CCN(C(=O)c3ccc(C)cc3)CC2)cc1 | inconclusive [inhibitor, single point] | –
56 | COC(=O)c1coc(-c2ccc(C)cc2)c1C(=O)OC | – | inconclusive: -31% [inhibitor]
57 | COc1ccc(OCCN2CCN(C(=O)c3ccc(OC)c(OC)c3)CC2)cc1 | inactive | –
58 | Oc1ccccc1-c1nc(NCc2cccnc2)c2ccccc2n1 | inconclusive [inhibitor, single point] | –
59 | Cc1ccc2c(c1)ncc[n+]2CC(=O)c1ccc(F)cc1 | active: 10 µM | –
60 | O=C(NCC(c1ccc(F)cc1)N1CCOCC1)c1ccc(Br)o1 (configuration not stated) | inconclusive [inhibitor, full curve, poor fit] | –
61 | COc1ccc(NCc2nnc(SCC(=O)Nc3nc(-c4ccccc4)cs3)n2-c2ccccc2)cc1 | active: 4.61 µM | –
62 | C=CCc1ccccc1OCCSc1nc2ccc([N+](=O)[O-])cc2s1 | inconclusive [inhibitor, single point] | –
63 | Nc1ccn([C@@H]2O[C@H](C(=O)N[C@H](CO)c3ccccc3)[C@@H](O)[C@H]2O)c(=O)n1 | inactive | –
64 | COc1ccccc1Cn1c(=S)[nH]c2ccccc2c1=O | inconclusive [inhibitor, single point] | –
65 | Cc1cc(C)c(CN2CCC(CO)(CCOc3ccccc3)CC2)cc1C | inconclusive [inhibitor, single point] | –
66 | O=C(Nc1cccc(-c2cccc(Cl)c2)c1)C1CCN(CC2CCOC2)CC1 (configuration not stated) | inconclusive [inhibitor, single point] | –
67 | CCc1cccc(C)c1NC(=O)CSc1nnc(CCCOc2ccc(Cl)cc2Cl)n1C | active: 23.1 µM | –
68 | CCCCNC(=O)C1C(c2ccccc2)=Nc2ccccc2N1C(=O)c1ccc(C(F)(F)F)cc1 (configuration not stated) | inconclusive [inhibitor, single point] | –
69 | CN(C)S(=O)(=O)c1cc(NC(=O)CSc2ncc(C(F)(F)F)cc2Cl)ccc1Cl | active: 14.6 µM | –
70 | Cc1ccc(/C=N\Nc2nc3ccc(Cl)cc3[nH]2)o1 | inconclusive [inhibitor, single point] | –
71 | CC1CCc2nn(CC(=O)NCc3ccco3)cc2C1 (configuration not stated) | active: 20.6 µM | –
72 | O=C(Nc1cccc(F)c1)c1ccc2c(c1)N(Cc1ccccc1)C(=O)c1ccccc1S2(=O)=O | – | inconclusive: -30.5% [inhibitor]
